We go through 44 sequences from the supplement of paper PMC11417369.

± gives the standard deviation of the averaged measurements. The list shows a part of the results.

The test system of this assay is PfAP2-EXP AP2 domain (GST-tagged). Briefly: gcPBM binding intensity (ln(normalized median fluorescence intensity)); higher = stronger DNA binding. The gist of the method:
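For binding intensity, the highest Masliner-normalised natural-log median intensity across replicate spots of either probe orientation was taken. Protein bound to the array was stained with Alexa488 anti-GST antibody and scanned at 488 nm. The protein, GST-tagged P. falciparum DNA-binding domains from E. coli at about 25 μg on average, had been applied for 1 h to an Agilent 4 × 180k array of primer-extended double-stranded 36-bp intergenic genomic probes and negative controls.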
On to “GTCATAAATGTACGCACACATACATAAACATATACA [CACACA_site650]”, for which the “gcPBM binding intensity (ln)” value was 8.82 ± 0.13. The same measure for “TTTGAACTCTTAAGTGGTACAAATTTGTATTTTCTC [XGTACX_site2322]”: 8.75 ± 0.42; for “GAAATGTGGTAATATACACACACGCATATATTTATA [CACACA_site6285]”: 8.49 ± 0.38; for “ACATAGCAATGTTTCACACACAAGAAAAAATACAAT [CACACA_site2379]”: 8.96 ± 0.42.

Take “TATAAATAAAAATATACACACTGTATTATTGTAATA [CACACA_site7721]”: the “gcPBM binding intensity (ln)” value turned out to be 8.2 ± 0.34.

Regarding “AATGGAATATATATTTGTACATAAATATTATAATAA [XGTACX_site8524]”, the “gcPBM binding intensity (ln)” value was found to be 8.56 ± 0.28. The same measure for “ACATGTTAACTAAATGTACACACCTATGTTGATGTA [CACACA_site1821]”: 8.56 ± 0.42; for “TTTACTCCTACAACATGTACATAAAATAAATTTTTT [XGTACX_site5010]”: 8.83 ± 0.3; for “TTATTTACAACTTTTTTTTTTTTATTTTATTTTATT [CACACA_negctrl_site341]”: 8.41 ± 0.47. Under “AATATAAGTAGTACAGTGCATATAATAATTAGAAGA [GTGCAC_site9485]” stands 9.125 ± 0.021; under “GATTAAACACAAAGAAGTACGGACATAAAAAAAAAA [XGTACX_site3686]”, 8.82 ± 0.59; under “TTGATTTATATTTAATGTACATTTTTACAGAAAATT [XGTACX_site2747]”, 8.48 ± 0.38. The same measure for “CCATAAAAAGGATACACACACACACGCACATATATA [CACACA_site6550]”: 8.73 ± 0.5; for TCGTGGTTTTAATAAGTGCGCAATTTAAATATTTTT: 8.84 ± 0.27; for “TATTATTATTATTACACACACAATTATATTTACCCC [CACACA_site503]”: 9.12 ± 0.52. “GTATATATATATATATATATATATTTTTATTTATTT [CACACA_negctrl_site589]”: the “gcPBM binding intensity (ln)” value is 8.65 ± 0.18.

With “ATATATGTAACATATTGTACATATATGTATGTATGT [XGTACX_site3281]”, the “gcPBM binding intensity (ln)” value stood at 8.84 ± 0.16. Under “ATGATAAAATTATGTAGTACATATTTGAATGTAAAT [XGTACX_site688]” stands 8.45 ± 0.35. Under “TAATCGGTAATATTAACACACACATTTATATATATT [CACACA_site8274]” stands 8.57 ± 0.47. For “AATATCTGTATATCCACACACATATATATATATATA [CACACA_site4987]”, the “gcPBM binding intensity (ln)” value came out at 10 ± 0.46. In the case of “TAATTTCTTATGTAGTGTACAAATAATATATGATAT [XGTACX_site597]”, the “gcPBM binding intensity (ln)” value worked out at 8.51 ± 0.28.

With “AATATCACCACATTGTTACTATAATATATAAAAAAG [XGTACX_negctrl_site384]”, the “gcPBM binding intensity (ln)” value came to 8.39 ± 0.38. The same measure for “AAAAGGAGAAATATTGCACACGTGCAAAATGGTATG [CACACA_site4300]”: 9.095 ± 0.064. The same measure for “ATTATTCATATAACACGTACAAAACGAAAAACAAAT [XGTACX_site3873]”: 9.1 ± 0.54. The same measure for “GTATTAATAAAAATACGTACTTATTATTTATAATAA [XGTACX_site7672]”: 8.225 ± 0.035; for “ATTCATAAAAGTTGTACATGCAATTTTTTTTTTTTT [TGCATGCA_site270]”: 8.89 ± 0.26. For the sequence “ATTTTGTTATGAAACACACACATATATATATATATA [CACACA_site3650]”, the “gcPBM binding intensity (ln)” value was 10.2 ± 0.18.

Turning to “TATATGCCTATAAGAAGTACTGTGTAATGTAATATA [XGTACX_site8089]”, the “gcPBM binding intensity (ln)” value was 8.69 ± 0.49. As for “TAAACATAAATATGCACACATATACATATATTCATA [CACACA_site2667]”, the “gcPBM binding intensity (ln)” value was determined as 8.48 ± 0.014. Under “AAGAAAAATATATTTATATATATATATATTAAATAT [TGCATGCA_negctrl_site500]” stands 8.21 ± 0.23; under “AATTTTATACGATAAACATGCAAATAAATAAATAAA [TGCATGCA_site227]”, 8.95 ± 0.31.

Turning to “ACAGCCAATACGGAAACACACAAGTTATTTTATCAT [CACACA_site5507]”, the “gcPBM binding intensity (ln)” value stood at 8.56 ± 0.64. In the case of “TATAATAATATTTATTGTACAATTAGTTTAATTCAT [XGTACX_site272]”, the “gcPBM binding intensity (ln)” value was 8.38 ± 0.33. The same measure for “TTTATTATATAAACATGTACACAATTTGGTATATTC [XGTACX_site3112]”: 8.6 ± 0.32; for “AAAGAAAAAAAAAACACACACACACCCATTCAATAT [CACACA_site38]”: 8.62 ± 0.52; for AAATTATGCATCGAGGTGCGTCTTAAAATATAGTGG: 8.76 ± 0.42. Under “ATATAAATTCAAATTACACACATTTATTTTTTTTAC [CACACA_site53]” stands 8.37 ± 0.45; under “ACTAATAATTTGTCGGTGCATAAAATTATTTTTATT [GTGCAC_site9840]”, 9.28 ± 0.64; under “CTACATAATAAAAAAAGTACATTCTAATAAATTGAC [XGTACX_site4504]”, 8.65 ± 0.35. For the sequence “GAAAATCAGTTAAACACACACATAAAAAAAAAAAAA [CACACA_site2875]”, the “gcPBM binding intensity (ln)” value came out at 8.38 ± 0.84. Take “ATCATATGTATGCATACACACAAAAAGTTATTTATA [CACACA_site6325]”: the “gcPBM binding intensity (ln)” value is 8.54 ± 0.32. “CATATAAAAAAATAGACACACATTTTATATAATACG [CACACA_site1896]”: the “gcPBM binding intensity (ln)” value came to 8.63 ± 0.32. The same measure for “TCAAGTATTAAAATGGGTACATAAATATGTGTATAT [XGTACX_site5884]”: 8.65 ± 0.25. The same measure for “CTTTTTAAATTAAAATGTACAGAAAAATATTATTAT [XGTACX_site8760]”: 8.36 ± 0.18.
